Reference: patent US20260200947A1, “FUSED CYCLIC COMPOUNDS AND USE THEREOF” (Jacobio Pharmaceuticals Co., Ltd., priority 2022, published 2026)
Where two headings read alike, the source gives them in different places.

Legend:
[1] = test system: Capan-2 cells (K-Ras G12V)
[2] = test system: AsPC-1 cells (K-Ras G12D)
[3] = test system: SW620 cells (K-Ras G12V)
[4] = test system: AGS cells (K-Ras G12D)
[5] = test system: AGS cells (K-Ras G12D); remark: listed apart in the source
[6] = target: GppNp-KRAS G12D (Homo sapiens, UniProt P01116, G12D); test: biochemical
[7] = test system: SW620 cells (K-Ras G12V); test: Phospho-ERK1/2(THR202/TYR204) HTRF assay, SW620; assay type: cell-based; details: Homo sapiens, SW-620, 2 hours incubation, read-out: pERK, IC50, SW620
[8] = target: GppNp-KRAS G12V (Homo sapiens, UniProt P01116, G12V); test: biochemical

Compound | IC50 [1] | IC50 [2] | IC50 [3] | IC50 [4] | IC50 [5] | IC50 [6] | IC50 [7] | IC50 [8]
C[C@H]1CCOC[C@H]2COc3c(Cl)c(-c4ccc(F)c5sc(N)c(C#N)c45)c(F)c4nc(OC[C@@]56CCCN5C[C@H](F)C6)nc(c34)N21 [Compound 158] | 22.8 nM | 5.06 nM | 2.17 nM | 15.5 nM | – | – | – | –
C#Cc1c(F)ccc2cc(N)cc(-c3nc4c5c(nc(OC[C@]67CC(=C)CN6C[C@H](F)C7)nc5c3F)N3CCCOC[C@H]3N4C)c12 [Compound 175] | 0.784 nM | – | 6.27 nM | 2.41 nM | 7.39 nM | – | – | –
C#Cc1c(F)ccc2cc(N)cc(-c3nc4c5c(nc(OCC67CCCN6CC6(C7)CC6(F)F)nc5c3F)N3CCCOC[C@H]3CO4)c12 (stereo partly drawn) [Compound 25] | – | – | – | – | – | 306 nM | 32.5 nM | –
N#Cc1c(N)sc2c(F)ccc(-c3cc4c5c(nc(OC[C@@]67CCCN6C[C@H](F)C7)nc5c3F)N3CCCOC[C@H]3CO4)c12 [Compound 161] | 48.4 nM | 64.4 nM | 25.1 nM | 34.8 nM | 18.5 nM | 53.8 nM | – | 101 nM
C#Cc1c(F)ccc2cc(N)cc(-c3nc4c5c(nc(OCC6(CN7CCOCC7)CC6)nc5c3F)N3CCCOC[C@H]3N4C)c12 [Compound 74] | 2.24 nM | 126 nM | 37.3 nM | 16.7 nM | 112 nM | 243 nM | – | 344 nM
C#Cc1c(F)ccc2cc(N)cc(-c3nc4c5c(nc(OC[C@@]67CCCN6C[C@H](F)C7)nc5c3F)N3[C@@H](CC)CCOC[C@H]3CO4)c12 [Compound 65] | – | 57.7 nM | 13.6 nM | – | – | 230 nM | 6.11 nM | 270 nM
C#Cc1c(F)ccc2cc(N)cc(-c3nc4c5c(nc(OC[C@@]67CCCN6C[C@H](F)C7)nc5c3F)N3CCC=CC3N4C)c12 (stereo partly drawn) [Compound 71] | – | – | 40.9 nM | – | 41.2 nM | – | 22.7 nM | > 1000 nM
C#Cc1c(F)ccc2cc(N)cc(-c3nc4c5c(nc(OC[C@@]67CCCN6C[C@H](F)C7)nc5c3F)N3CCCCC(C#N)C3N4C)c12 (stereo partly drawn) [Compound 101] | 25 nM | 656 nM | 199 nM | 48.3 nM | 128 nM | – | – | > 1000 nM
C#Cc1c(F)ccc2cc(N)cc(-c3nc4c5c(nc(OCC6(CN7CC[C@@H](F)C7)CC6)nc5c3F)N3CCCOCC3N4C)c12 (stereo partly drawn) [Compound 82] | 19.9 nM | 920 nM | 128 nM | 86.9 nM | 370 nM | > 1000 nM | – | > 1000 nM
C#Cc1c(F)ccc2cc(N)cc(-c3nc4c5c(nc(OC[C@@]67CCCN6C[C@H](F)C7)nc5c3F)N3[C@@H]5CC5COC[C@@H]3N4C)c12 (stereo partly drawn) [Compound 159A] | 8.54 nM | 687 nM | – | 102 nM | 71.4 nM | – | – | –
C#Cc1c(F)ccc2cc(N)cc(-c3nc4c5c(nc(OC[C@@]67CCCN6C[C@H](F)C7)nc5c3F)N3[C@@H](C)CCC[C@H](F)[C@H]3N4C)c12 [Compound 89] | 0.886 nM | 2.67 nM | 1.98 nM | 0.624 nM | 0.894 nM | – | – | –
C#Cc1c(F)ccc2cc(O)cc(-c3nc4c5c(nc(OC[C@@]67CCCN6C[C@H](F)C7)nc5c3F)N3CCCOC[C@H]3N4C)c12 [Compound 50] | – | – | – | – | – | – | 0.678 nM | –
C#Cc1c(F)ccc2cc(N)cc(-c3nc4c5c(nc(OC[C@@H]6CCCN6C)nc5c3F)N3CCCOCC3N4C)c12 (stereo partly drawn) [Compound 111] | 19.4 nM | 410 nM | 159 nM | 52.1 nM | 179 nM | – | – | –
C#Cc1c(F)ccc2cc(N)cc(-c3nc4c5c(nc(OC[C@@]67CCCN6C[C@H](F)C7)nc5c3F)N3CCCOC[C@H]3C4=C)c12 [Compound 21] | – | – | – | – | – | 82.4 nM | 4.04 nM | 103 nM
C#Cc1c(F)ccc2cc(N)cc(-c3nc4c5c(nc(OC[C@@]67CCCN6C[C@H](F)C7)nc5c3F)N3CCC=CCC3N4C)c12 (stereo partly drawn) [Compound 72] | 10.5 nM | 145 nM | 79.6 nM | 27.3 nM | 20.9 nM | 105 nM | – | 257 nM
C[C@H]1CCOC[C@H]2N(C)c3nc(-c4cc(O)cc5ccc(F)c(F)c45)c(F)c4nc(OC[C@@]56CCCN5C[C@H](F)C6)nc(c34)N12 [Compound 73] | 5.6 nM | 128 nM | 28.9 nM | 11.7 nM | 6.87 nM | 140 nM | – | 503 nM
C#Cc1c(F)ccc2cc(N)cc(-c3nc4c5c(nc(OC[C@@]67CC(=C)CN6C[C@H](F)C7)nc5c3F)N3CCCOC[C@H]3N4C)c12 [Compound 173] | 1.41 nM | – | 7.4 nM | 3.95 nM | 9.99 nM | – | – | –
C#Cc1c(F)ccc2cc(N)cc(-c3nc4c5c(nc(OC[C@@]67CCCN6C[C@H](F)C7)nc5c3F)N3CCCCOC3N4C)c12 (stereo partly drawn) [Compound 70] | – | 353 nM | – | – | 23.3 nM | 426 nM | 50.9 nM | –

Compound | IC50 [1] | IC50 [2] | IC50 [3] | IC50 [4] | IC50 [5] | IC50 [6] | IC50 [7] | IC50 [8]
C#Cc1c(F)ccc2cc(N)cc(-c3nc4c5c(nc(OC[C@@]67CCCN6C[C@H](F)C7)nc5c3F)N3C(C5CCCO5)CCOCC3N4C)c12 (stereo partly drawn) [Compound 100] | 5.87 nM | 444 nM | 119 nM | 51.2 nM | 50.1 nM | 647 nM | – | –
C#Cc1c(F)ccc2cc(N)cc(-c3nc4c5c(nc(OCC67C[C@@H](F)CN6CC6(CC6)C7)nc5c3F)N3CCCOC[C@H]3CO4)c12 (stereo partly drawn) [Compound 33] | – | – | – | – | – | 99.9 nM | 2.83 nM | 223 nM
[2H][C@]1(F)CCCCN2c3nc(OC[C@@]45CCCN4C[C@H](F)C5)nc4c(F)c(-c5cc(N)cc6ccc(F)c(C#C)c56)nc(c34)N(C)[C@@H]21 [Compound 95] | 1.38 nM | 1.87 nM | 1 nM | 0.649 nM | 17.8 nM | 8.34 nM | – | 27.3 nM
C#Cc1c(F)c(F)cc2cc(N)cc(-c3nc4c5c(nc(OC[C@@]67CCCN6C[C@H](F)C7)nc5c3F)N3CCCOC[C@H]3CO4)c12 [Compound 8] | – | 79.4 nM | 5.84 nM | – | – | 66.4 nM | 2.23 nM | 200 nM
C#Cc1c(F)ccc2cc(N)cc(-c3nc4c5c(nc(OCC67CC(C)CN6C[C@H](F)C7)nc5c3F)N3CCCOC[C@H]3CO4)c12 (stereo partly drawn) [Compound 32] | – | – | – | – | – | – | 22.7 nM | –
C#Cc1c(F)ccc2cc(N)cc(-c3nc4c5c(nc(OC[C@@]67CCCN6C[C@H](F)C7)nc5c3F)N3CCCC[C@@H](O)[C@H]3N4C)c12 [Compound 110] | 17.5 nM | 324 nM | 106 nM | 6.05 nM | 30.7 nM | 244 nM | – | > 1000 nM
C#Cc1c(F)ccc2cc(N)cc(-c3nc4c5c(nc(OC[C@@]67CCCN6C[C@H](F)C7)nc5c3F)N3CCOCC3CC4=C)c12 (stereo partly drawn) [Compound 22] | – | 470 nM | 59.5 nM | – | 142 nM | – | 30.8 nM | –
C#Cc1c(F)ccc2cc(N)cc(-c3nc4c5c(nc(OC[C@@]67CCCN6C[C@H](F)C7)nc5c3F)N3CC(F)COC[C@H]3CO4)c12 (stereo partly drawn) [Compound 15] | – | – | – | – | – | – | 29.4 nM | –
C#Cc1c(F)ccc2cc(N)cc(-c3nc4c5c(nc(OC[C@@]67CCCN6CC(=C)C7)nc5c3F)N3CCCOC[C@H]3N4C)c12 [Compound 125] | 0.905 nM | 15.9 nM | 2.59 nM | 0.764 nM | 3.67 nM | – | – | –
C#Cc1c(F)ccc2cc(N)cc(-c3nc4c5c(nc(OCC67CCCN6CC(F)C7)nc5c3F)N3CCC5CC5C(F)C3N4C)c12 (stereo not drawn) [Compound 116] | 5.97 nM | 237 nM | 23.6 nM | 20.8 nM | – | 65.8 nM | – | 203 nM
C#Cc1c(F)ccc2cc(N)cc(-c3nc4c5c(nc(OC[C@@]67CCCN6CC(=C)C7)nc5c3F)N3CCCOC[C@H]3CO4)c12 [Compound 7] | – | – | – | – | – | – | 1.55 nM | –
C#Cc1c(F)c(F)cc2cc(N)cc(-c3nc4c5c(nc(OC[C@@]67CCCN6CC(=C)C7)nc5c3F)N3CCCOC[C@H]3CO4)c12 [Compound 34] | – | – | – | – | – | 50 nM | 2 nM | 68.1 nM
CN1c2nc(-c3ccc(F)c4sc(N)c(C#N)c34)c(F)c3nc(OC[C@@]45CCCN4C[C@H](F)C5)nc(c23)N2CCCOC[C@@H]12 [Compound 75] | 23.4 nM | 806 nM | 163 nM | 105 nM | 109 nM | 386 nM | – | 880 nM
C#Cc1c(F)ccc2cc(N)cc(-c3nc4c5c(nc(OCC6(CN(C)C)CC6(F)F)nc5c3F)N3CCCOC[C@H]3N4C)c12 (stereo partly drawn) [Compound 4] | 3.85 nM | 151 nM | 20.9 nM | 11.2 nM | 18.2 nM | 164 nM | – | 292 nM
C#Cc1c(F)ccc2cc(N)cc(-c3nc4c5c(nc(OC[C@@]67CCCN6C[C@H](F)C7)nc5c3F)N3CC(F)(F)CCC3N4C)c12 (stereo partly drawn) [Compound 53] | – | – | – | – | – | 989 nM | 46.9 nM | > 1000 nM
C#Cc1c(F)ccc2cc(O)cc(-c3nc4c5c(nc(OC[C@@]67CCCN6C[C@H](F)C7)nc5c3F)N3CCOCC3C4=C)c12 (stereo partly drawn) [Compound 12] | – | – | – | – | – | – | 34.4 nM | –
C#Cc1c(F)ccc2cc(N)cc(-c3nc4c5c(nc(OC[C@@]67CCCN6C[C@H](F)C7)nc5c3F)N3CC(F)=CCCC3N4C)c12 (stereo partly drawn) [Compound 79] | 18.5 nM | 110 nM | 70.7 nM | 8.24 nM | 22.8 nM | – | – | –
C#Cc1c(F)c(F)cc2cc(N)cc(-c3nc4c5c(nc(OC[C@@]67CCCN6C[C@H](F)C7)nc5c3F)N3CCCOC[C@H]3N4C)c12 [Compound 45] | – | – | – | – | – | – | 3.59 nM | –
